Experimental data: PubChem BioAssay AID504333 (National Center for Advancing Translational Sciences (NCATS), 2011)
The campaign covered roughly 360,000 compounds. About 16,000 (4.4%) were called active. Inconclusive results, whose numbers are uncertain, are shown with a selection of clear calls. Calls follow the shape of the dose curve; as a rule, active = well fitted inhibition curve with a large enough effect; inconclusive = small, poorly fitted or top-dose-only effect; inactive = no such curve, though single readings can be large or run the other way. Where the call is inconclusive, the potency comes from a doubtful curve fit.

These compounds were tested against Bromodomain adjacent to zinc finger domain protein 2B (Homo sapiens) (UniProt Q9UIF8) (assay: qHTS Assay for Inhibitors of BAZ2B). Conditions: AlphaScreen BAZ2B-H3K14Ac peptide displacement; series mostly up to 114 µM.
Sequence of UniProt Q9UIF8 (Q9UIF8 whole entry, looked up, the tested form may be a part): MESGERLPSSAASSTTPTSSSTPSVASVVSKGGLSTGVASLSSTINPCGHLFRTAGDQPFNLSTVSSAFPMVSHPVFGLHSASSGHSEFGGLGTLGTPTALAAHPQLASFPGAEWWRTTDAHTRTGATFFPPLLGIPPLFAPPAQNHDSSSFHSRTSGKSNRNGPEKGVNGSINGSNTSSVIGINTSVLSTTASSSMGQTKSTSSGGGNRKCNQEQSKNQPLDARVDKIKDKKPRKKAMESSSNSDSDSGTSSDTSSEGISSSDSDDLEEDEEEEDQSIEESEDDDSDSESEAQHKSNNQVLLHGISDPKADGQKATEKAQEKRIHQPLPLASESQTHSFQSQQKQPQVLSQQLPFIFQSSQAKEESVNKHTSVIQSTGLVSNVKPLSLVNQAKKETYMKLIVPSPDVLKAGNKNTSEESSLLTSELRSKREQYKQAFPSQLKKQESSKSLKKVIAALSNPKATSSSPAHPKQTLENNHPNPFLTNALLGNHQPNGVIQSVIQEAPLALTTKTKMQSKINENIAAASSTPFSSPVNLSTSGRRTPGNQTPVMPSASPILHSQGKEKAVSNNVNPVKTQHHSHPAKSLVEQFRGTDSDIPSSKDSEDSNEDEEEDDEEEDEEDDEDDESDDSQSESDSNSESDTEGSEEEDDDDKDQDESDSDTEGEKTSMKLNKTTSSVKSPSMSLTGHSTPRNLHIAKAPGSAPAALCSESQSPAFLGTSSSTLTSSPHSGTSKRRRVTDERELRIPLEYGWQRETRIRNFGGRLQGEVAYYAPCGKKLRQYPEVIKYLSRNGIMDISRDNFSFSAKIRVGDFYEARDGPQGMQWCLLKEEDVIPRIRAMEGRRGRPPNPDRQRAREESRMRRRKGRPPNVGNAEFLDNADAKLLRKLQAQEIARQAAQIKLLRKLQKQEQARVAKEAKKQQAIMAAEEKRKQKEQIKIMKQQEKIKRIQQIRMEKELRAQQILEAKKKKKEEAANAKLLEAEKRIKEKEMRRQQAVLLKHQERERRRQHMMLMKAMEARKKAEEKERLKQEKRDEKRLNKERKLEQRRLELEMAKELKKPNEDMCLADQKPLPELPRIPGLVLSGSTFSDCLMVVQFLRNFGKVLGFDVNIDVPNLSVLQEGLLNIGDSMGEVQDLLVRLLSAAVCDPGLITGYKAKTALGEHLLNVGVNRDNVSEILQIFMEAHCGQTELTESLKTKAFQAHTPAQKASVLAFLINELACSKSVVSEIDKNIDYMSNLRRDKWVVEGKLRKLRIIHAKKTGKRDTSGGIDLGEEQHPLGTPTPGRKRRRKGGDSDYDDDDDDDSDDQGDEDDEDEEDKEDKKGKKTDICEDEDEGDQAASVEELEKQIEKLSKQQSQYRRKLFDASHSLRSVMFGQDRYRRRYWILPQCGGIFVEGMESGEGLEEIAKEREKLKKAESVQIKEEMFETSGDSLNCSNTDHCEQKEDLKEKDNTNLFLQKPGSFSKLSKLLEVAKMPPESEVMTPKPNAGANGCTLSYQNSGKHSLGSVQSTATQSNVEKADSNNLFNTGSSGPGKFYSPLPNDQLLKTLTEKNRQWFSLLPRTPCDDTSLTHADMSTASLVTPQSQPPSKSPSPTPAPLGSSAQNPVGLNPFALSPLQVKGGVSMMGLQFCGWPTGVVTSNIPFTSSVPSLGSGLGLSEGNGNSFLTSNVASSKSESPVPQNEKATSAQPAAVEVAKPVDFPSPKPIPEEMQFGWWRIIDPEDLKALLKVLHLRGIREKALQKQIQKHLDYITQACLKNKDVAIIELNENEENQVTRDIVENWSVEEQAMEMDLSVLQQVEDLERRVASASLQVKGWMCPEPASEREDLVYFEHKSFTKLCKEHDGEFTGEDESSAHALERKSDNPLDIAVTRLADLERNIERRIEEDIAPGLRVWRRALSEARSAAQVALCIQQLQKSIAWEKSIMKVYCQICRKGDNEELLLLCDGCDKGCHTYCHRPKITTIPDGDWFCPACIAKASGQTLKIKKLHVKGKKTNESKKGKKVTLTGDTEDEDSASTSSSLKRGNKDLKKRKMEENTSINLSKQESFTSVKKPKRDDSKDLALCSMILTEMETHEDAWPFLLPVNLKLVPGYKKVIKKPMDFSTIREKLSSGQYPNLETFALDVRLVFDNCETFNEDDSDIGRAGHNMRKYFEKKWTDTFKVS
Method in brief: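 AlphaScreen luminescence quantifies BAZ2B engagement of H3K14Ac peptide; the protein and biotinylated peptide are both at 50 nM final, buffer PBS pH 7.4 with 0.01% Tween-20, all steps at room temperature.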
Also: nearly all actives have a fitted effect of over 60% in size.
Potency is read from the fitted curve at half-maximal effect; tags tell the direction and shape of the fitted curve.

| Compound | Potency |
| --- | --- |
| N[C@@H](Cc1c[nH]c2ccc(O)cc12)C(=O)O | inconclusive: 89.1 µM [inhibitor, single point] |
| COc1cc(C2C(C#N)=C(N)Oc3n[nH]c(-c4cccs4)c32)cc(OC)c1O (stereo not drawn) | inconclusive: 79.4 µM [inhibitor, single point] |
| CCOc1cccc(OCCCNCCCOC)c1 | active: 39.8 µM |
| O=C(c1cc(-c2cccs2)nn1-c1ccccc1)N1CCN(S(=O)(=O)c2ccccc2)CC1 | inactive |
| Cc1ccc(-n2nc3ccc(N)cc3n2)c(C)c1 | inconclusive: 79.4 µM [inhibitor, single point] |
| CCCCc1cc(=O)oc2cc(C)cc(OC(C)C(=O)NCC3CCC(C(=O)O)CC3)c12 (stereo not drawn) | inconclusive: 89.1 µM [inhibitor, single point] |
| CC(C)OC(=O)c1nn2c(C(F)(F)F)cc(-c3ccco3)nc2c1Cl | inactive |
| CCOc1ccc(C(=O)N/N=C/c2cc(Cl)ccc2[N+](=O)[O-])cc1 | active: 56.2 µM |
| COCCC(=O)N1CCC(Oc2ccc(C(=O)NC3CCCCC3)cc2)CC1 | inconclusive: 89.1 µM [inhibitor, single point] |
| O=C(Oc1ccc2c(=O)c(Cl)coc2c1)c1ccncc1 | inconclusive: 89.1 µM [inhibitor, single point] |
| O=C(NCc1ccccc1)C1CCCN1S(=O)(=O)c1ccc(F)cc1 (stereo not drawn) | inconclusive: 89.1 µM [inhibitor, single point] |
| COc1ccc(CC2(C)OC(c3ccc([N+](=O)[O-])cc3)=NN2C(C)=O)cc1 (stereo not drawn) | inconclusive: 39.8 µM [inhibitor, partial curve] |
| Cc1cccc(NC(=O)CSc2nc(-c3cccc(C)c3)nc3c2Cc2c(CO)cnc(C)c2O3)c1 | inconclusive: 56.2 µM [inhibitor, partial curve] |
| CSc1ccc(C2c3[nH]c4ccccc4c3CCN2C(=O)c2cc(C)n(C)n2)cc1 (stereo not drawn) | inconclusive: 39.8 µM [inhibitor, full curve, poor fit] |
| COc1ccccc1CNC(=O)c1ccc(-c2nc(CS(=O)c3ccc(C)cc3)c(C)o2)cc1 (stereo not drawn) | inactive |
| CCN1CCN(Cc2ccc(NC(=O)c3ccc(C)c(NC(=O)C(=O)c4c[nH]c5ccccc45)c3)cc2C(F)(F)F)CC1 | active: 12.6 µM |
| COc1ccc(CC(=O)Nc2ccc(/C(C)=N/NC(=O)c3ccc(OC)cc3OC)cc2)cc1 | inactive |
| Cn1c(C(=O)NCC2CCCO2)cc2oc3ccccc3c21 (stereo not drawn) | inconclusive: 50.1 µM [inhibitor, partial curve] |
| CCOC(=O)N1CCC(=NNc2ccc(S(=O)(=O)N3CCOCC3)cc2[N+](=O)[O-])CC1 | inactive |
| CCCCn1c(=O)c2oc3ccccc3c2n(Cc2ccc(OC)cc2)c1=O | inactive |
| Cc1cc(C)nc(N/N=C/C2=C(O)CC(c3ccc(F)cc3)CC2=O)n1 (stereo not drawn) | active: 22.4 µM |
| COc1ccc(NC(=O)Nc2ccc([N+](=O)[O-])cc2)cn1 | inconclusive: 100 µM [inhibitor, single point] |
| O=C(c1cccc(F)c1)N1CCN(C2CCCCC2)CC1 | active: 50.1 µM |
| O=C(CCn1cccc1)Nc1cccc(F)c1 | inconclusive: 79.4 µM [inhibitor, single point] |
| O=C1c2cccc3c([N+](=O)[O-])ccc(c23)C(=O)N1c1ccccn1 | inconclusive: 20 µM [inhibitor, single point] |

| Compound | Potency |
| --- | --- |
| COc1cc(/C=N/NC(=O)NC23CC4CC(CC(C4)C2)C3)ccc1O | inconclusive: 79.4 µM [inhibitor, partial curve] |
| CCOc1ccccc1NC(=O)C1CCCN(c2ncnc3onc(-c4ccc(F)cc4)c23)C1 (stereo not drawn) | inactive |
| CN1c2ccccc2N(C)C1(C)c1cccc2ccccc12 | inconclusive: 31.6 µM [inhibitor, partial curve] |
| O=C(N/N=C/C(Br)=C\c1ccccc1)c1cccs1 | inactive |
| CCOCCCN(C(=O)c1snc(C(N)=O)c1N)C(C(=O)NC1CCCC1)c1ccc(F)cc1 (stereo not drawn) | inactive |
| COc1cc2c(cc1OC)C1O[C@](CCCCN3C(=O)c4ccccc4C3=O)(C2)Oc2cc(C)n(Cc3ccccc3)c(=O)c21 | inconclusive: 14.1 µM [inhibitor, single point] |
| Cn1c(NN)nc2c1c(=O)n(Cc1ccccc1)c(=O)n2C | inconclusive: 44.7 µM [inhibitor, partial curve] |
| Cc1ccc(/C=C/C(=O)NCc2cccs2)o1 | inconclusive: 50.1 µM [inhibitor, partial curve] |
| O=C(O)c1ccccc1NC(=S)NC(=O)c1cccc2ccccc12 | inconclusive: 79.4 µM [inhibitor, single point] |
| C/C(=N\Nc1ccccn1)c1ccc(N2CCOCC2)cc1 | inconclusive: 50.1 µM [inhibitor, partial curve] |
| CN(c1ncnc2c1c(-c1ccccc1)cn2-c1cccc(Cl)c1)C1CCCCC1 | inactive |
| COc1cc(NC(=O)Nc2cccc(Cl)c2)c(OC)cc1NC(=O)CN1CCCCC1 | active: 39.8 µM |
| O=C(CSc1nccn1-c1ccccc1)Nc1ccc2c(c1)OCO2 | inconclusive: 39.8 µM [inhibitor, partial curve] |
| CCOc1cc(/C=C/c2ccc3cccc([N+](=O)[O-])c3n2)ccc1O | inconclusive: 89.1 µM [inhibitor, single point] |
| O=C1C2=C(C(=O)c3ccccc31)C1O[C@](c3ccsc3)(Cc3ccccc31)O2 | active: 10 µM |
| COc1ccccc1OCCN1C(=O)S/C(=C\c2ccco2)C1=O | inconclusive: 35.5 µM [inhibitor, partial curve] |
| CN(C)c1ccc(C(C(=O)NCC2CCCO2)N(Cc2ccccc2)C(=O)c2snc(C(N)=O)c2N)cc1 (stereo not drawn) | inconclusive: 79.4 µM [inhibitor, partial curve] |
| O=C(/C=C/c1ccco1)N1CCN(c2ccccc2)CC1 | inactive |
| COc1cc2nc(CC(C)C)n(NC(=O)c3ccccc3)c(=O)c2cc1OC | inconclusive: 89.1 µM [inhibitor, single point] |
| COC(=O)C1=C(C)N(Cc2ccccc2)C(=NCCc2ccccn2)N[C@H]1c1cccc(F)c1 | inconclusive: 70.8 µM [inhibitor, single point] |
| O=c1oc2c3c4c(cc2s1)CCCN4CCC3 | active: 56.2 µM |
| Cc1ccc(Cl)cc1NC(=S)N(CCCN1CCN(C)CC1)Cc1cccs1 | inactive |
| O=c1c2c(-c3ccc(Cl)cc3)csc2ncn1/N=C/c1cccc([N+](=O)[O-])c1O | active: 50.1 µM |
| CN(C)CCOCCOc1ccccc1-c1ccccc1 | active: 20 µM |
| O=C(CN1C(=O)COc2ccc(S(=O)(=O)N3CCOCC3)cc21)NCc1ccc(Cl)cc1 | inactive |

| Compound | Potency |
| --- | --- |
| CS(=O)(=O)c1ncc(Cl)c(C(=O)N2CCN(c3cccc(Cl)c3)CC2)n1 | inconclusive: 79.4 µM [inhibitor, single point] |
| CN(CCOc1ccccc1)C(=O)c1cc(-c2ccco2)nc2ccccc12 | active: 44.7 µM |
| COc1cccc(-c2cc(=O)c3cc(NC(=O)c4ccc(N(C)C)cc4)ccc3[nH]2)c1 | active: 79.4 µM |
| S=c1[nH]nc(Cc2sc(-c3ccccc3)nc2-c2ccccc2)o1 | inconclusive: 70.8 µM [inhibitor, single point] |
| COc1ccccc1C(c1nnnn1CS(=O)(=O)c1ccc(C)cc1)N1CCSCC1 (stereo not drawn) | inconclusive: 79.4 µM [inhibitor, single point] |
| Cc1cc(C)c(C)c(S(=O)(=O)NC(C(=O)NCCc2ccco2)C(C)C)c1C (stereo not drawn) | inconclusive: 89.1 µM [inhibitor, single point] |
| CCOc1ccccc1C(=O)Nc1nn[nH]n1 | active: 50.1 µM |
| CCOc1ccc(OCCOCCn2c(-c3ccc(Cl)cc3)nc3ccccc3c2=O)cc1 | inactive |
| CC1(C)CC(=O)C(C2c3ccccc3S(=O)(=O)c3ccccc32)C(=O)C1 | inconclusive: 79.4 µM [inhibitor, single point] |
| CNC(=S)N/N=C(\C)c1ccc2c(c1)OCO2 | inconclusive: 70.8 µM [inhibitor, single point] |
| CCOc1ccc(Cc2n[nH]c(=S)n2N)cc1 | inactive |
| O=C1C=C(Nc2ccccc2C(=O)O)c2ccccc2C1=O | active: 35.5 µM |
| CCOc1ccc(Nc2nc(N)c(C(=O)c3ccccc3Cl)s2)cc1 | inconclusive: 50.1 µM [inhibitor, partial curve] |
| CN(C)c1ccc(/C=N/NC(=O)CNC(=O)/C=C/c2ccco2)cc1 | inconclusive: 70.8 µM [inhibitor, single point] |
| O=C(CCC(=O)Nc1ccccc1)N/N=C/c1ccco1 | inactive |
| Cc1csc(Nc2ccccc2)[n+]1-c1ccccc1 | active: 44.7 µM |
| COc1ccc(NC(=O)c2ocnc2C)cc1OC | inactive |
| Cc1cccc(OCCCC(=O)Nc2ccc(N(C)C)cc2)c1 | inconclusive: 11.2 µM [inhibitor, full curve] |
| CCNc1ccc(Br)cc(C(=O)/C=C/c2ccc(Cl)cc2Cl)c1=O | active: 44.7 µM |
| CC(OC(=O)c1ccc(S(=O)(=O)NCc2ccco2)cc1)C(=O)Nc1ncc(Cl)cc1Cl (stereo not drawn) | inconclusive: 100 µM [inhibitor, single point] |
| CC(=O)OC1=C(C(C)=O)N(Cc2ccccc2)S(=O)(=O)c2ccccc21 | inconclusive: 79.4 µM [inhibitor, single point] |
| Cc1ccc(Cl)cc1NC(=O)c1csnn1 | inconclusive: 89.1 µM [inhibitor, single point] |
| CCn1nc(C)c(CNC(=O)c2cc(COc3ccc(F)cc3Cl)on2)c1C | inactive |
